# PubChem BioAssay AID2147 (National Center for Advancing Translational Sciences (NCATS), 2009)
# Where “and” joins values, the source holds several entries; their conditions need not be identical. Equal entries are not always repeated. Hit rate of the full screen: of about 230,000 compounds, about 3,600 (1.6%) were called active. Inconclusive results, whose numbers are uncertain, are shown with a selection of clear calls. Calls come from the whole dose curve; as a rule, active = well fitted inhibition curve with a large enough effect (not every such curve was filed as active); inconclusive = small, poorly fitted or top-dose-only effect, or another doubt; inactive = no such curve, though single readings can be large or run the other way. Potencies of inconclusive entries are doubtful fits and often do not repeat.
# Biological target: Lysine-specific demethylase 4E (Homo sapiens) (UniProt B2RXH2)
# Assay: qHTS Assay for Inhibitors of Human Jumonji Domain Containing 2E (JMJD2E)
# Settings: JMJD2E catalytic domain, FDH-coupled NADH fluorescence (FDH is formaldehyde dehydrogenase); series mostly up to 57.1 µM
# Note: nearly all actives have a fitted effect of over 50% in size.
# Potency is the fitted concentration of half-maximal effect; tags give direction and shape of the fitted curve.
# Sequence of UniProt B2RXH2 (B2RXH2 whole entry, looked up, the tested form may be a part): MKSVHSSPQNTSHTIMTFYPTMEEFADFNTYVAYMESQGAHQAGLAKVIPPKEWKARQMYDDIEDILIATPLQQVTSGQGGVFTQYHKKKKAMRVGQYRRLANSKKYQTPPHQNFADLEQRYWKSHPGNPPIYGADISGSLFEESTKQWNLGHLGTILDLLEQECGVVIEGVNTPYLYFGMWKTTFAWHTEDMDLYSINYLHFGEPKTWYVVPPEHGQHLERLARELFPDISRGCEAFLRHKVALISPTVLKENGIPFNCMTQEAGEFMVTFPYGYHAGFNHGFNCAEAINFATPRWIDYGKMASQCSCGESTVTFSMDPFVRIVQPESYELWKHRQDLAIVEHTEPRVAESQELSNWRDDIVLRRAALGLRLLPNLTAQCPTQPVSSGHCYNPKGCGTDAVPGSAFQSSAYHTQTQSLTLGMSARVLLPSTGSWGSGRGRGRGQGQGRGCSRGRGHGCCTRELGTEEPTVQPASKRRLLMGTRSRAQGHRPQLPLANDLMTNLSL
row,SMILES,Potency
1,Cc1nn(-c2ccccn2)c2c1C(c1ccccn1)C1=C(CCCC1=O)N2 (stereo not given),"inconclusive: 35.5 µM [inhibitor, partial curve]"
2,Cc1cc(C)c(OCCCON2C(=O)CCC2=O)c(Br)c1,inactive
3,O=C(N/N=C/c1ccc(N2CCCC2)c([N+](=O)[O-])c1)c1cccnc1,inactive
4,Cc1ccc(S(=O)(=O)N2CCOCC2)cc1NC(=O)CNCc1ccccn1,"inconclusive: 31.6 µM [inhibitor, single point]"
5,COC(=O)/C(=C/c1c[nH]c2ccccc12)[N+](=O)[O-],"inconclusive: 28.2 µM [inhibitor, partial curve]"
6,CCCCC(O)(CCN1CCOCC1)c1ccc(Cl)cc1 (stereo not given),inactive
7,Clc1ccc(-c2nc3ccccc3[nH]2)cn1,"inconclusive: 28.2 µM [inhibitor, partial curve]"
8,Brc1ccc(-c2csc(NNC3=NCCCCC3)n2)cc1,inactive
9,O=c1[nH]c2ccccc2c2nc(-c3cccc(S(=O)(=O)N4CCCC4)c3)nn12,inactive
10,CCOC(=O)CC1(CC(=O)OCC)NC(=O)c2c(C)sc(C(=O)OCC)c2N1,"inconclusive: 28.2 µM [inhibitor, partial curve]"
11,CCOc1nc(N=C(N)N)nc2c(C)cccc12,"inconclusive: 22.4 µM [inhibitor, partial curve]"
12,Cc1cc(C)n2c(SCC(=O)N(CC(C)C)c3c(N)n(CC(C)C)c(=O)[nH]c3=O)nnc2n1,"inconclusive: 39.8 µM [inhibitor, single point]"
13,CCCN=Cc1sc2ccc(OCC)cc2c1O,"inconclusive: 28.2 µM [inhibitor, single point]"
14,COc1cccc(C2/C(=C(\O)c3ccc4c(c3)OCO4)C(=O)C(=O)N2CCN(C)C)c1OC (stereo not given),"inconclusive: 39.8 µM [inhibitor, single point]"
15,Cc1ccc(N2C(=O)CC(Nc3cccc4ccccc34)C2=O)cc1 (stereo not given),"inconclusive: 35.5 µM [inhibitor, single point]"
16,CCCCn1nc2cc(C(=O)NCc3ccccc3OC)ccc2c1OCC,"inconclusive: 22.4 µM [inhibitor, partial curve]"
17,CCCCOc1ccc(OC(=O)Nc2cc(Cl)ccc2OC)cc1,inactive
18,CCOC(=O)C1(CCc2ccccc2)CCN(C(=O)C2CCCO2)CC1 (stereo not given),inactive
19,Cc1cccc2c1-c1sc(C(=O)Nc3ccccc3N3CCN(C)CC3)cc1CO2,"inconclusive: 35.5 µM [inhibitor, single point]"
20,N#CC1=C(N)n2c(s/c(=C\c3ccco3)c2=O)=C(C#N)C1c1ccco1 (stereo not given),"inconclusive: 25.1 µM [inhibitor, partial curve]"
21,O=c1oc2ccccc2cc1-c1csc(Nc2nc3ccc(F)cc3s2)n1,inactive
22,COc1ccc(NC(=O)CN(C)CC(=O)Nc2ccccc2SC)cc1,"inconclusive: 25.1 µM [inhibitor, single point]"
23,CC(=O)Nc1ccc(S(=O)(=O)NC2CCS(=O)(=O)C2)cc1Cl (stereo not given),inactive
24,CCN(c1ccccc1)S(=O)(=O)c1ccc(C(=O)Nc2nnc(CSC)o2)cc1,"inconclusive: 39.8 µM [inhibitor, single point]"
25,CCCC(=O)c1cc2c(cc1NC(=O)c1ccccc1F)OCCO2,"inconclusive: 39.8 µM [inhibitor, single point]"

row,SMILES,Potency
1,O=C(NCc1ccccc1)C1=C[C@@H](c2ccc(Br)cc2)C[C@@H](OCCCCO)O1,inactive
2,Cc1cc(C)cc(N=c2c([N+](=O)[O-])nn(-c3ccc(Cl)cc3)n2O)c1,inactive
3,CC(C)Cn1nc(NC(=O)c2cccs2)c2cc3ccccc3nc21,"inconclusive: 28.2 µM [inhibitor, partial curve]"
4,Fc1ccc2[nH]c3c(N4CCN(C5CCCCC5)CC4)ncnc3c2c1,"inconclusive: 31.6 µM [inhibitor, partial curve]"
5,Cc1cccc(NC(=O)CSc2ccc(-c3ccccn3)nn2)c1C,"inconclusive: 39.8 µM [inhibitor, single point]"
6,COc1cc(N2CN=c3s/c(=C\c4ccccn4)c(=O)n3C2)cc(OC)c1OC,"inconclusive: 22.4 µM [inhibitor, single point]"
7,COc1cc(/C=C(\NC(C)=O)C(=O)Nc2ccccc2C)ccc1OC(C)=O,inactive
8,Cc1onc(-c2ccccc2Cl)c1C(=O)NCc1cccnc1,inactive
9,CC(C)(CO)NCC#Cc1ccccc1,inactive
10,CSc1nc(C)cc(OCC(=O)N/N=C/c2ccccc2O)n1,active: 25.1 µM
11,Oc1ccc(Cc2ccc(Cl)cc2)c(O)c1,inactive
12,CCCOc1ccc(C(=O)C(c2ccccc2)N2CCOCC2)cc1 (stereo not given),inactive
13,COc1cc(/C=N/n2cnc3scc(-c4cccs4)c3c2=O)cc(OC)c1OC,"inconclusive: 25.1 µM [inhibitor, single point]"
14,O=C(Nc1cc(S(=O)(=O)N2CCOCC2)ccc1N1CCCC1)c1cc(=O)[nH]c2ccccc12,"inconclusive: 17.8 µM [inhibitor, single point]"
15,O=C(C[n+]1ccc2ccccc2c1)c1ccc(NC(=O)c2ccccc2)cc1,inactive
16,COc1ccc(N=Cc2c(O)n(-c3ccc(OC)cc3)c(=O)c3ccccc23)cc1,"inconclusive: 25.1 µM [inhibitor, single point]"
17,Cc1cc(C)c(C)c(S(=O)(=O)N2C(=S)NC(=O)C2CC(C)C)c1C (stereo not given),"inconclusive: 35.5 µM [inhibitor, single point]"
18,O=[N+]([O-])/C(C(Cl)=C(Cl)Cl)=C(\Nc1ccc(F)cc1)n1cncn1,"inconclusive: 31.6 µM [inhibitor, single point]"
19,Cc1noc(C)c1-c1nc(CS(=O)(=O)c2ccc(Cl)cc2)no1,"inconclusive: 39.8 µM [inhibitor, single point]"
20,COc1ccc(C(C)=O)c(O)c1,inactive
21,CCn1cnc2scc(-c3ccccc3)c2c1=O,inactive
22,COCCCNC(=O)Cn1c(=O)n(Cc2ccccc2Cl)c(=O)c2cc(OC)c(OC)cc21,"inconclusive: 8.91 µM [inhibitor, full curve]"
23,COc1ccc(OCCOCCN2CCOCC2)cc1,inactive
24,Cc1ccsc1-c1nc(CSCC(=O)NCc2ccc3c(c2)OCO3)c(C)o1,"inconclusive: 20 µM [inhibitor, partial curve]"
25,CCc1cc(C(=O)O)c(NC(=O)/C=C/c2ccc(OC)cc2)s1,inactive

row,SMILES,Potency
1,COc1cccc(/C=C/C(=O)OCC(=O)Nc2ccc(Cl)cn2)c1,"inconclusive: 28.2 µM [inhibitor, single point]"
2,CC(NC(=S)Nc1ccccc1Cl)C(c1ccccc1)N1CCOCC1 (stereo not given),inactive
3,CC1(C)Cc2nc(NCCCO)c(C#N)cc2CO1,"inconclusive: 31.6 µM [inhibitor, partial curve]"
4,COC(=O)C1=C(N)c2c(F)cccc2C1(C#N)c1ccc(F)cc1 (stereo not given),"inconclusive: 35.5 µM [inhibitor, partial curve]"
5,CCCn1cnc2cc(NCc3cccs3)ccc21,"inconclusive: 35.5 µM [inhibitor, single point]"
6,Cc1cccc2cc(C(c3nnnn3C(C)(C)C)N(Cc3ccco3)CC3CCCO3)c(=O)[nH]c12 (stereo not given),inactive
7,Cc1ccc(C2=NNC(C(O)C(O)C(O)C(O)CO)S2)cc1 (stereo not given),inactive
8,Oc1ccc(-c2nc3c4c(ncn3n2)-c2ccccc2CC42CCCC2)cc1,inactive
9,Cc1nc2nc(SCC(=O)c3ccc([N+](=O)[O-])cc3)[nH]c2cc1Br,inactive
10,Cn1c(C(=O)N2CCN(Cc3ccccc3)CC2)cc2c(=O)n(C)c3ccccc3c21,"inconclusive: 39.8 µM [inhibitor, single point]"
11,COc1cc(-c2nc3ccccc3s2)ccc1O,"inconclusive: 28.2 µM [inhibitor, partial curve]"
12,COc1ccc2c(c1)C(=O)[C@H](O)[C@@H](c1ccc(OC)c(Br)c1)O2,"inconclusive: 31.6 µM [inhibitor, partial curve] and inconclusive: 15.8 µM [inhibitor, partial curve, poor fit]"
13,COc1ccc(CC(=O)Nc2ccc(-c3ccc4nnc(C)n4n3)cc2)cc1OC,"inconclusive: 39.8 µM [inhibitor, single point]"
14,CCC(=O)NC(c1cccs1)c1cc([N+](=O)[O-])c2cccnc2c1O (stereo not given),"inconclusive: 35.5 µM [inhibitor, single point]"
15,Cc1cc(C)c2c(N)c(C(=O)C(C)(C)C)sc2n1,inactive
16,NNc1ccc(Cc2ccc(Cl)cc2Cl)nn1,"inconclusive: 25.1 µM [inhibitor, single point]"
17,CCOC(=O)c1c(NC(=O)C2CC(Cl)=CCC2C(=O)O)sc2c1CC(C)(C)OC2 (stereo not given),"inconclusive: 2.82 µM [inhibitor, partial curve]"
18,CCOC(=O)c1cnc2nc(C)[nH]n2c1=O,"inconclusive: 39.8 µM [inhibitor, single point]"
19,COc1cc(/C=N/NC(=S)NCCN2CCOCC2)ccc1O,"inconclusive: 35.5 µM [inhibitor, single point]"
20,Cc1cccc(N)c1-c1c(C)cccc1N,inactive
21,COCCCn1c(SCC(=O)c2ccccc2)nc2ccccc2c1=O,inactive
22,CCCCCC(=O)/C=C/C=C\C/C=C\C/C=C\CCCC(=O)O,inactive
23,Cc1nc2c(C(=O)NCc3cccs3)cnn2c(C)c1Cc1ccc(F)cc1,"inconclusive: 31.6 µM [inhibitor, partial curve]"
24,N#Cc1cc(C(=O)c2ccccc2O)cn(-c2nccs2)c1=O,"inconclusive: 15.8 µM [inhibitor, partial curve]"
25,Nc1ncc(N=Nc2cc(C(=O)O)ccc2Cl)s1,active: 25.1 µM
